Measured values taken from the supplement of paper PMC8728848.
The other results are listed elsewhere or left out.

Assays:
Test in all cases: glycan array binding signal (z-score within array); higher = stronger binding
Settings in all cases: glycan notation: IUPAC condensed, linker removed
[1] = target: GlcNAc(b1-3)Gal(b1-3)GalNAc
Summary of the method: (§1)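 Arrays were curated from the Consortium for Functional Glycomics database, 3228 in total, and kept only where the protein sequence was available. Binding is expressed as a within-array Z-score. This score was averaged across arrays of the same protein sequence at different concentrations or buffers and across linkers, and negative values can be read as non-binding.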

[2] = target: GlcNAc(b1-3)Gal(b1-4)Glc
Summary of the method: as §1

[3] = target: GlcNAc(b1-3)Gal(b1-4)GlcNAc
Summary of the method: as §1

[4] = target: GlcNAc(b1-3)Gal(b1-4)GlcNAc(b1-2)Man(a1-3)[GlcNAc(b1-3)Gal(b1-4)GlcNAc(b1-2)Man(a1-6)]Man(b1-4)GlcNAc(b1-4)GlcNAc
Summary of the method: as §1

[5] = target: GlcNAc(b1-3)Gal(b1-4)GlcNAc(b1-2)Man(a1-3)[GlcNAc(b1-3)Gal(b1-4)GlcNAc(b1-2)Man(a1-6)]Man(b1-4)GlcNAc(b1-4)[Fuc(a1-6)]GlcNAc
Summary of the method: as §1

[6] = target: GlcNAc(b1-3)Gal(b1-4)GlcNAc(b1-2)[GlcNAc(b1-3)Gal(b1-4)GlcNAc(b1-6)]Man(a1-6)[GlcNAc(b1-3)Gal(b1-4)GlcNAc(b1-2)Man(a1-3)]Man(b1-4)GlcNAc(b1-4)GlcNAc
Summary of the method: as §1

[7] = target: GlcNAc(b1-3)Gal(b1-4)GlcNAc(b1-3)Gal(b1-4)GlcNAc
Summary of the method: as §1

[8] = target: GlcNAc(b1-3)Gal(b1-4)GlcNAc(b1-3)Gal(b1-4)GlcNAc(b1-2)Man(a1-3)[GlcNAc(b1-3)Gal(b1-4)GlcNAc(b1-3)Gal(b1-4)GlcNAc(b1-2)Man(a1-6)]Man(b1-4)GlcNAc(b1-4)GlcNAc
Summary of the method: as §1

[9] = target: GlcNAc(b1-3)Gal(b1-4)GlcNAc(b1-3)Gal(b1-4)GlcNAc(b1-2)Man(a1-3)[GlcNAc(b1-3)Gal(b1-4)GlcNAc(b1-3)Gal(b1-4)GlcNAc(b1-2)Man(a1-6)]Man(b1-4)GlcNAc(b1-4)[Fuc(a1-6)]GlcNAc
Summary of the method: as §1

[10] = target: GlcNAc(b1-3)Gal(b1-4)GlcNAc(b1-3)Gal(b1-4)GlcNAc(b1-2)[GlcNAc(b1-3)Gal(b1-4)GlcNAc(b1-3)Gal(b1-4)GlcNAc(b1-6)]Man(a1-6)[GlcNAc(b1-3)Gal(b1-4)GlcNAc(b1-3)Gal(b1-4)GlcNAc(b1-2)Man(a1-3)]Man(b1-4)GlcNAc(b1-4)[Fuc(a1-6)]GlcNAc
Summary of the method: as §1

[11] = target: GlcNAc(b1-3)Gal(b1-4)GlcNAc(b1-3)Gal(b1-4)GlcNAc(b1-3)Gal(b1-4)GlcNAc(b1-2)Man(a1-3)[GlcNAc(b1-3)Gal(b1-4)GlcNAc(b1-3)Gal(b1-4)GlcNAc(b1-3)Gal(b1-4)GlcNAc(b1-2)Man(a1-6)]Man(b1-4)GlcNAc(b1-4)GlcNAc
Summary of the method: as §1

[12] = target: GlcNAc(b1-3)Gal(b1-4)GlcNAc(b1-3)Gal(b1-4)GlcNAc(b1-3)Gal(b1-4)GlcNAc(b1-2)Man(a1-3)[GlcNAc(b1-3)Gal(b1-4)GlcNAc(b1-3)Gal(b1-4)GlcNAc(b1-3)Gal(b1-4)GlcNAc(b1-2)Man(a1-6)]Man(b1-4)GlcNAc(b1-4)[Fuc(a1-6)]GlcNAc
Summary of the method: as §1

[13] = target: GlcNAc(b1-3)Gal(b1-4)GlcNAc(b1-3)Gal(b1-4)GlcNAc(b1-3)Gal(b1-4)GlcNAc(b1-2)[GlcNAc(b1-3)Gal(b1-4)GlcNAc(b1-3)Gal(b1-4)GlcNAc(b1-3)Gal(b1-4)GlcNAc(b1-6)]Man(a1-6)[GlcNAc(b1-3)Gal(b1-4)GlcNAc(b1-3)Gal(b1-4)GlcNAc(b1-3)Gal(b1-4)GlcNAc(b1-2)Man(a1-3)]Man(b1-4)GlcNAc(b1-4)[Fuc(a1-6)]GlcNAc
Summary of the method: as §1

[14] = target: GlcNAc(b1-3)Gal(b1-4)GlcNAc(b1-3)Gal(b1-4)GlcNAc(b1-3)Gal(b1-4)GlcNAc(b1-3)Gal(b1-4)GlcNAc(b1-2)Man(a1-3)[GlcNAc(b1-3)Gal(b1-4)GlcNAc(b1-3)Gal(b1-4)GlcNAc(b1-3)Gal(b1-4)GlcNAc(b1-3)Gal(b1-4)GlcNAc(b1-2)Man(a1-6)]Man(b1-4)GlcNAc(b1-4)GlcNAc
Summary of the method: as §1

[15] = target: GlcNAc(b1-3)Gal(b1-4)GlcNAc(b1-3)Gal(b1-4)GlcNAc(b1-3)Gal(b1-4)GlcNAc(b1-3)Gal(b1-4)GlcNAc(b1-2)Man(a1-3)[GlcNAc(b1-3)Gal(b1-4)GlcNAc(b1-3)Gal(b1-4)GlcNAc(b1-3)Gal(b1-4)GlcNAc(b1-3)Gal(b1-4)GlcNAc(b1-2)Man(a1-6)]Man(b1-4)GlcNAc(b1-4)[Fuc(a1-6)]GlcNAc
Summary of the method: as §1

[16] = target: GlcNAc(b1-3)Gal(b1-4)GlcNAc(b1-3)Gal(b1-4)GlcNAc(b1-3)Gal(b1-4)GlcNAc(b1-3)Gal(b1-4)GlcNAc(b1-2)[GlcNAc(b1-3)Gal(b1-4)GlcNAc(b1-3)Gal(b1-4)GlcNAc(b1-3)Gal(b1-4)GlcNAc(b1-3)Gal(b1-4)GlcNAc(b1-6)]Man(a1-6)[GlcNAc(b1-3)Gal(b1-4)GlcNAc(b1-3)Gal(b1-4)GlcNAc(b1-3)Gal(b1-4)GlcNAc(b1-3)Gal(b1-4)GlcNAc(b1-2)Man(a1-3)]Man(b1-4)GlcNAc(b1-4)[Fuc(a1-6)]GlcNAc
Summary of the method: as §1

[17] = target: GlcNAc(b1-3)Gal(b1-4)GlcNAc(b1-3)Gal(b1-4)GlcNAc(b1-3)GalNAc
Summary of the method: as §1

[18] = target: GlcNAc(b1-3)Gal(b1-4)GlcNAc(b1-3)GalNAc
Summary of the method: as §1

[19] = target: GlcNAc(b1-3)Gal(b1-4)GlcNAc(b1-3)[GlcNAc(b1-3)Gal(b1-4)GlcNAc(b1-3)]GalNAc
Summary of the method: as §1

[20] = target: GlcNAc(b1-3)Gal(b1-4)GlcNAc(b1-6)[Gal(b1-3)]GalNAc
Summary of the method: as §1

[21] = target: GlcNAc(b1-3)Gal(b1-4)GlcNAc(b1-6)[GlcNAc(b1-3)Gal(b1-3)]GalNAc
Summary of the method: as §1

[22] = target: GlcNAc(b1-3)Gal(b1-4)GlcNAc(b1-6)[GlcNAc(b1-3)]Gal(b1-4)GlcNAc
Summary of the method: as §1

B1: LBL-152 (Laetiporus bicolor), B0D650 (protein)
chain: MSNEYNPPLGIAFRLCGLASDRVLFSRVSPSPEVFHHPKSEVYPDQWFVAIPGSGQNAGCYAIKSKNTGKVLFSRMSPDPRVGHIDGDGKYPDNWFKFEAGSGKYAGYFRLRAVASDTVLVSRTSTGTDTQVINYPATSAKYDDQYFTILFDHHHHHH
[1]
  glycan array binding signal (z-score): -0.149
[2]
  glycan array binding signal (z-score): -0.156
[3]
  glycan array binding signal (z-score): -0.157
[4]
  glycan array binding signal (z-score): -0.12
[5]
  glycan array binding signal (z-score): -0.107
[6]
  glycan array binding signal (z-score): -0.133
[7]
  glycan array binding signal (z-score): -0.15
[8]
  glycan array binding signal (z-score): 0.023
[9]
  glycan array binding signal (z-score): 0.071
[10]
  glycan array binding signal (z-score): 0.132
[11]
  glycan array binding signal (z-score): 0.2
[12]
  glycan array binding signal (z-score): 1.18
[13]
  glycan array binding signal (z-score): 0.355
[14]
  glycan array binding signal (z-score): 3.47
[15]
  glycan array binding signal (z-score): 4.51
[16]
  glycan array binding signal (z-score): 2.01
[17]
  glycan array binding signal (z-score): -0.155
[18]
  glycan array binding signal (z-score): -0.152
[19]
  glycan array binding signal (z-score): -0.15
[20]
  glycan array binding signal (z-score): -0.153
[21]
  glycan array binding signal (z-score): -0.148
[22]
  glycan array binding signal (z-score): -0.155
